# According to the supplement of paper PMC3334620:
# Over roughly 33,000 sequences, “E-score (-0.5 to 0.5)” has its median near -0.021; the highest 2% begin near 0.32. Some of the results follow.
# Target: T1, Zap1 (UniProt P47043)
# T1 sequence: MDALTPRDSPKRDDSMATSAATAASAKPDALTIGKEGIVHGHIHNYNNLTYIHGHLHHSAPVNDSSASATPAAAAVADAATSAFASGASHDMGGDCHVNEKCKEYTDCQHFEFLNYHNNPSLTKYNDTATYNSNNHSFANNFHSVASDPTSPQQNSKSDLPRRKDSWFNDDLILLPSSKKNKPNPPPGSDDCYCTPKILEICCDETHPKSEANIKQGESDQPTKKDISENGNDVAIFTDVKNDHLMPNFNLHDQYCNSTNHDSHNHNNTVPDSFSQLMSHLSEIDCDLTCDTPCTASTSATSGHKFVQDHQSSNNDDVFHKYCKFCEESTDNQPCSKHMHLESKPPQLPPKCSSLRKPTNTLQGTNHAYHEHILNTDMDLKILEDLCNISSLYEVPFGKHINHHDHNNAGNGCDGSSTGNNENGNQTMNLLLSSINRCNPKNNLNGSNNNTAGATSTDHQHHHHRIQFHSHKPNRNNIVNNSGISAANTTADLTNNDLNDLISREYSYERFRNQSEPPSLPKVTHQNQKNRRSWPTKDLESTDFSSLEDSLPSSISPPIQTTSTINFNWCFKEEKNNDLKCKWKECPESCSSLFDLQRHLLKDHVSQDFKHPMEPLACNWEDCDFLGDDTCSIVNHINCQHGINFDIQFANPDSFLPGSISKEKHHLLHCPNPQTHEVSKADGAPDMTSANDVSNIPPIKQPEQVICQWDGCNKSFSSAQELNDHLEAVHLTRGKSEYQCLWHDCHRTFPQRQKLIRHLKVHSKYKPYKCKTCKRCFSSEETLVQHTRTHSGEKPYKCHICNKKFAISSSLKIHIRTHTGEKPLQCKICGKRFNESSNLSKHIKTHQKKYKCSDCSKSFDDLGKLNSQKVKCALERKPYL
# Experiment: PBM E-score (8-mer binding enrichment) (E-score (-0.5 to 0.5)); higher = stronger / more preferred TF binding; most listed sequences are background and not binding sites
# Settings: protein concentration: 200 nM; construct: GST-full length
# In short: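 E-scores (a modified Wilcoxon-Mann-Whitney statistic) were assigned by the Universal PBM Analysis Suite to every ungapped eight-base word pooled with its reverse complement. The input came from universal all-10-mer Agilent arrays made double-stranded by primer extension and probed with GST-tagged yeast transcription factors at about 100-200 nM. Fluorescent anti-GST detected bound protein, and masliner normalised the scans.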
row,Sequence,PBM E-score
1,AAGTACCG,0.134
2,CACGCCTG,-0.265
3,CTGAACGA,0.0438
4,ATGCCGTA,0.0795
5,CGCATTGC,-0.121
6,ATCGAAGA,0.0214
7,GCCCCCAC,-0.222
8,CTCCTCTC,-0.249
9,TTCCACAA,0.101
10,TACAGCCA,-0.0777
11,CGTAATAA,0.0644
12,ACGAGGAC,-0.0791
13,CGCACTAA,-0.0584
14,CGTATCGC,-0.0418
15,CCTCAAGG,0.262
16,TGGCGTAA,-0.00392
17,AGGCGTGA,-0.156
18,CAAGGCAG,-0.162
19,AAAGAGGC,-0.135
20,ATGCAGGC,-0.229
21,CGATCCAC,0.00013
22,ATTCCACC,0.0323
23,AAGGGAAT,-0.127
24,ACTGACAC,-0.0765
25,GAGCCGAA,0.0882

row,Sequence,PBM E-score
1,GATAAGCC,-0.248
2,CCGCTCCA,-0.179
3,ACCCACCG,0.233
4,GTAATCAC,0.123
5,AGCGCACA,-0.114
6,CCGATCAG,-0.169
7,TACCCAGA,0.265
8,CACGCGTG,0.185
9,ATCGGGAA,-0.0546
10,CGTAGTTA,0.177
11,AACCGTAC,0.163
12,CCCCGTTC,-0.141
13,ACGTTAAT,0.115
14,CACCGAAC,0.0464
15,ATTCCTGG,-0.0883
16,GCGGCCAA,-0.00658
17,GAAGGGGA,-0.0649
18,ATTACTAG,-0.024
19,ACATGGGA,-0.123
20,GGCTTGTA,-0.0979
21,CCCGTAAA,0.118
22,CATATTAG,0.112
23,AGGCTCCA,-0.262
24,GTATGTAA,0.157
25,GACCGGTC,-0.118

row,Sequence,PBM E-score
1,GACCTTCC,0.0371
2,ACACGGAC,-0.183
3,CACAATTA,0.00978
4,CTCAATCC,0.0375
5,GGCGACTA,-0.221
6,TAGCCTCA,-0.0242
7,ACGCCAGC,-0.19
8,ATTTTACA,0.0383
9,CTCCCCTA,-0.209
10,CGCCGCAG,-0.0452
11,CGCTTGCA,-0.0367
12,ATGGGCCC,-0.124
13,CAACGGAC,-0.172
14,AGGGCGTC,-0.131
15,CTTCGTGC,-0.0559
16,TCCCGACA,-0.137
17,AATAAGAA,0.208
18,AGACTTCA,-0.0713
19,GTCCTCTA,-0.0992
20,AAAGAATA,0.0369
21,AATTGGTA,0.239
22,CCATTAGC,0.0188
23,CGATTCAG,-0.0831
24,GCTGTCTA,-0.195
25,AAGAGTCT,-0.23

row,Sequence,PBM E-score
1,CAAGGTCG,0.263
2,CGAGTTAA,0.114
3,CGGGCCTC,-0.148
4,CACTGAAG,0.0529
5,AAAACACC,0.202
6,ACGACAAA,0.213
7,ACGTAGCG,-0.259
8,CTTCAGCC,-0.0899
9,TACCACAA,0.359
10,AGCAGGCA,-0.336
11,AGTCGATC,-0.187
12,TCCTAACA,0.175
13,AAACGGCT,-0.359
14,AAGTGAAG,-0.133
15,ATGGAGTG,-0.179
16,ACTATCAT,-0.0255
17,AGTTCACA,0.0502
18,AGGTTAGA,0.185
19,TCAATCAA,0.103
20,CTCAGGCC,-0.26
21,CGTGCCTA,-0.216
22,ACCGCAAC,0.341
23,CGTATATC,-0.218
24,ATCCCCCC,-0.429
25,CGCCAGGC,-0.252

row,Sequence,PBM E-score
1,AGTACTCG,0.0121
2,ACTCCGCT,-0.192
3,CTTTTCCA,0.0307
4,GCGTTATA,0.218
5,GACTCCCA,-0.295
6,CACATCAA,-0.0712
7,TACGTGCA,-0.0221
8,AGCTCTAG,-0.0907
9,GAATCAAC,0.0243
10,CATGGGTC,0.121
11,GGGTCGTA,0.245
12,GACACGAA,0.0447
13,ACCCCATA,0.373
14,CCTTGAAG,0.261
15,AGAAGGAT,-0.18
16,ACAGTCCC,-0.223
17,TAGGGGAA,-0.0351
18,CCGAATCA,-0.175
19,GCATGCAC,-0.164
20,GCCATTAA,0.0139
21,CGCGTCAA,-0.0118
22,ATCGTGAG,-0.0882
23,ATACTAAA,0.209
24,CGAATCTC,-0.111
25,AGCCAAAC,0.0264

row,Sequence,PBM E-score
1,CTGCGTCC,-0.139
2,CAATCGGG,0.0498
3,GGCTTTAA,0.0849
4,GAGATCTC,-0.243
5,ATCCTGTA,0.0994
6,TAGAGACA,-0.17
7,GGCATTAC,0.0188
8,AGCAAATG,-0.171
9,AGATGAGC,-0.133
10,TATGTAGA,-0.049
11,CATGCAAG,-0.0958
12,CCGAGCTA,-0.263
13,CACGAGGA,-0.135
14,ATGGTGGC,-0.197
15,AAAAGTGA,0.132
16,GGAACGGA,-0.0971
17,ATATTTAC,0.141
18,GAGTCATA,0.0211
19,GCACGCAA,-0.0909
20,CGCCTAGC,-0.394
21,CGCCTACA,0.00538
22,AGTAACAA,0.161
23,CTACAGAG,0.00241
24,GGAATATA,0.0159
25,CGGCGGGC,-0.0632

row,Sequence,PBM E-score
1,ACGCTGGG,-0.189
2,GGTAGTTA,0.339
3,GTGATTCA,-0.0338
4,GGAGTCGA,-0.327
5,CAGATCAC,0.0274
6,CGTACGAC,-0.126
7,CGTAATTA,0.228
8,CGATGGAG,-0.0101
9,ACATATAC,-0.0961
10,AGGCAAGG,-0.237
11,CGGCAGGC,-0.34
12,ACTGGGAT,0.106
13,ATGGACGG,0.0838
14,CACCGTGG,-0.0703
15,CAGTCCGC,-0.258
16,AGCTAAAG,-0.0341
17,GGCTGCGA,-0.0139
18,CATCAAAG,0.0848
19,AAACTATA,0.0991
20,AAACCTTA,0.288
21,ACTACGTG,-0.0538
22,ATGCGAGA,-0.0251
